The text below walks through data of PubChem BioAssay (NCI).

Among the test systems are A498 renal; BT-549 breast; COLO 205 colon; HOP-92 NSCLC; MALME-3M melanoma; NCI-H226 lung; NCI-H522 lung; OVCAR-3 ovarian; OVCAR-5 ovarian; SF-268 CNS; SK-MEL-2 melanoma; SK-MEL-5 melanoma; TK-10 renal; IGROV1 ovarian; OVCAR-4 ovarian; PC-3 prostate; RPMI-8226 leukemia; UO-31 renal.
What all share (assay): inhibition of tumour cell growth, NCI panel, 48 h

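Following 48 hours of exposure in 96-well plates, responses at five concentrations were used to interpolate endpoints linearly. Abbreviation: GI50, concentration required for 50% inhibition of growth.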 Certain results were filed several times, with different values. The other results are left out here. There may be further records. Results that share an entry repeat one measurement (runs, samples, wells, individuals or studies). Records carry a tag for their origin. A, B and so on number the origins entry by entry.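 TGI: concentration producing complete growth inhibition.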

As to `COc1ccc(-c2cn[nH]c2-c2cc(OC)c(OC)c(OC)c2)cc1N`, the TGI is 1.11 µM [sample A, 1 test] and 25.8 nM [sample B, 1 test] in the assay with A498 renal; 37.9 nM [sample A, 1 test] and > 100 µM [sample B, 1 test] in the assay on BT-549 breast; 25 nM [sample A, 1 test] and 477 nM [sample B, mean of 2 tests] in the assay on COLO 205 colon; < 10 nM [sample A, 1 test] and > 62.7 µM [sample B, mean of 2 tests] in the assay on NCI-H522 lung; < 10 nM [sample A, 1 test] and 5.12 µM [sample B, mean of 2 tests] with OVCAR-3 ovarian; 25.6 nM [sample A, 1 test] and 260 nM [sample B, mean of 2 tests] with SK-MEL-5 melanoma. For the same compound, the GI50 with HOP-92 NSCLC was < 10 nM [sample A, 1 test] and 1.73 µM [sample B, mean of 2 tests]; in the assay with MALME-3M melanoma it was 39.1 µM [sample A, 1 test] and 87.3 nM [sample B, mean of 2 tests]; in the assay with NCI-H226 lung it was 19.8 µM [sample A, 1 test] and 137 nM [sample B, 1 test]; in the assay with OVCAR-5 ovarian it was 7.05 µM [sample A, 1 test] and 57.8 nM [sample B, mean of 2 tests]; in the assay on SF-268 CNS it was < 10 nM [sample A, 1 test] and 204 nM [sample B, mean of 2 tests]; in the assay with SK-MEL-2 melanoma, < 10 nM [sample A, 1 test] and 428 nM [sample B, mean of 2 tests]. The GI50 in the assay on TK-10 renal was < 10 nM [sample A, 1 test] and 19.5 µM [sample B, mean of 2 tests].

As to `CNC(=O)c1cccc(-c2ccc3c(N4CCOC[C@@H]4C)nc(N4CCOC[C@@H]4C)nc3n2)c1`, the TGI with COLO 205 colon was > 100 µM [sample A, 1 test] and > 2.91 µM [sample B, mean of 2 tests] and 6.34 µM [sample C, mean of 2 tests]; with IGROV1 ovarian, 54.6 µM [sample A, 1 test] and 349 nM [sample B, mean of 2 tests] and 158 nM [sample C, mean of 2 tests]; with OVCAR-3 ovarian, 1.19 µM [sample A, 1 test] and > 6.14 µM [sample B, mean of 2 tests] and 38.2 µM [sample C, mean of 2 tests]; in the assay with OVCAR-4 ovarian it was 1.52 µM [sample A, 1 test] and 917 nM [sample B, mean of 2 tests] and 95.8 nM [sample C, 1 test]; in the assay on PC-3 prostate it was 521 nM [sample A, 1 test] and > 10 µM [sample B, mean of 2 tests] and 651 nM [sample C, mean of 2 tests]; in the assay on RPMI-8226 leukemia, 11.2 µM [sample A, 1 test] and > 3.8 µM [sample B, mean of 2 tests] and 333 nM [sample C, 1 test]. Further, the TGI in the assay on UO-31 renal was 11.2 µM [sample A, 1 test] and 1.43 µM [sample B, mean of 2 tests] and 414 nM [sample C, mean of 2 tests]. In addition, the GI50 in the assay on OVCAR-4 ovarian is 46.4 nM [sample A, 1 test] and 147 nM [sample B, mean of 2 tests] and 13.8 nM [sample C, 1 test].
